# PubChem BioAssay AID2675 (National Center for Advancing Translational Sciences (NCATS), 2010)
# About 100 (0.036%) of roughly 280,000 compounds were called active. The inconclusive results got no clear call from the source; some entries with a clear call stand among them for comparison. Calls come from the whole dose curve; as a rule, active = well fitted inhibition curve with a large enough effect in the signal ratio, with a control signal flat (not every such curve was filed as active); inconclusive = small, poorly fitted or top-dose-only effect, or effect the other way, or a change in a side signal; inactive = no such curve, though single readings can be large or run the other way; the % refers to the signal ratio. Potencies beside an inconclusive call are fits to weak or partial responses and may not hold up. A note “side channel” means that the fit belongs to a control or component signal, not to the main read-out.
# Molecular target: Muscleblind-like protein 1 (Homo sapiens) (UniProt Q9NR56)
# Sequence of UniProt Q9NR56 (Q9NR56 whole entry, looked up): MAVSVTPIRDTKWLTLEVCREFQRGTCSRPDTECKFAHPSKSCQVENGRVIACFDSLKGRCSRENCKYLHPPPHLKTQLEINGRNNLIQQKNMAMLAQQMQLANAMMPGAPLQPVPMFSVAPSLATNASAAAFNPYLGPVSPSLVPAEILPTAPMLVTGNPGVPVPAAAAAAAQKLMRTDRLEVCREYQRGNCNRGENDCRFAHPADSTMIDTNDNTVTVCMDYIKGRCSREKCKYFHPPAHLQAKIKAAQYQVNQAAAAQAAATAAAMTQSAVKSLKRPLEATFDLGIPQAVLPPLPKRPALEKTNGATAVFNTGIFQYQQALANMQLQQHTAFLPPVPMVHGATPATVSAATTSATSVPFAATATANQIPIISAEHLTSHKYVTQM
# Assay: qHTS Assay for Inhibitors of MBNL1-poly(CUG) RNA binding
# Details: TR-FRET MBNL1-His/biotin-(CUG)12 binding, 665/545 ratio; activity change, negative = inhibition: at 57.5 µM (top of the series)
# In short: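 MBNL1-His + Biotin-(CUG)12, cpd titration 92 nM–58 uM; Tb anti-His Ab 0.055 ng/ul, SA-XL665 5 nM (final); 60 min RT; ratiometric 665/545 nm, Ex 340 nm; normalized to buffer and full-complex controls.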
# % is set by controls: 0 for no effect and ±100 for the full control effect; potency is the fitted concentration of half-maximal effect; tags give direction and shape of the fitted curve or compound fluorescence and quenching.
Compound,Potency,"activity change, negative = inhibition"
COc1cc(/C=C/C(=O)OCC(=O)NC(=O)NC(C)C)ccc1OCC#N,"inconclusive: 12.6 µM [quencher, side channel, partial curve]",–
CCOC(=O)N1CCN(c2nc(SC)nc3sc4c(c23)CC(C)(C)OC4)CC1,"inconclusive: 11.2 µM [fluorescent, side channel, partial curve, poor fit]",–
O=[N+]([O-])c1ccc(NC(=S)N2CCc3ccccc3C2)cc1,"inconclusive: 10 µM [quencher, side channel, partial curve, poor fit]",–
COc1ccc(NC(=S)NNc2ccc(S(=O)(=O)Nc3ccccc3C(=O)O)cc2[N+](=O)[O-])cc1,"inconclusive: 17.8 µM [quencher, side channel, partial curve]",–
Cc1cc(NC(=O)CSCc2ccc([N+](=O)[O-])cc2)no1,"inconclusive: 7.94 µM [quencher, side channel, partial curve]",–
CS(=O)(=O)N(CCc1ccccc1)CC(=O)Nc1ccc2c(c1)OCO2,–,inactive: 5.77%
NC(=O)COC(=O)c1cc(=O)[nH]c2ccc(S(=O)(=O)Nc3ccc(F)cc3)cc12,"inconclusive: 7.94 µM [quencher, side channel, partial curve]",–
O=C(/C(=C/c1ccc(Cl)cc1)c1nc2ccccc2[nH]1)c1cccs1,–,inactive: 1.18%
CC(=O)NS(=O)(=O)c1ccc(NC(=O)C2c3ccccc3Oc3ccccc32)cc1,"inconclusive: 63.1 µM [inhibitor, partial curve]",–
Cc1cc(C)n2[nH]c(=O)c(N=Nc3ccc(S(N)(=O)=O)cc3)c2n1,"inconclusive: 3.16 µM [quencher, side channel, full curve]",–
O=C(Nc1cccnc1)C1CCCN(S(=O)(=O)c2cccc3nsnc23)C1 (stereo unspecified),"inconclusive: 15.8 µM [quencher, side channel, partial curve]",–
COc1cc(/C=N\NC(=O)c2sc(N)nc2C)cc(OC)c1OC,"inconclusive: 28.2 µM [quencher, side channel, partial curve]",–
COc1ccc(NC(=O)/C(C#N)=C\c2ccc(-c3cc(C(=O)O)ccc3C)o2)cc1,–,inactive: 0.07%
O=C(CSc1nc2ccccc2[nH]1)N/N=C/C=C/c1ccccc1[N+](=O)[O-],"inconclusive: 28.2 µM [quencher, side channel, partial curve]",–
Cc1ccc(S(=O)(=O)c2c(N)n(NC(=O)c3ccco3)c3nc4ccccc4nc23)cc1,"inconclusive: 31.6 µM [quencher, side channel, single point]",–
O=C(CC1NCCNC1=O)Nc1cccc([N+](=O)[O-])c1 (stereo unspecified),"inconclusive: 28.2 µM [quencher, side channel, partial curve]",–
CCN(CC)CCNC(=O)CNC(=O)c1nn(-c2ccc(OC)cc2)c(=O)c2ccccc12,"inconclusive: 15.8 µM [quencher, partial curve]",–
CCOc1ccccc1Nc1nc(N)nc(CN2CCCCC2C)n1 (stereo unspecified),"inconclusive: 6.31 µM [inhibitor, single point]",–

Compound,Potency,"activity change, negative = inhibition"
CCOCCCNC(=S)Nc1cc(C)cc(C)c1,"inconclusive: 1.78 µM [fluorescent, side channel, full curve, poor fit]",–
CCn1cc(C(=O)Nc2ccc(C(=O)N3CCCC3)cc2)c(=O)c2ccc(C)nc21,–,inactive: -6.23%
CC(Sc1nnc2c(n1)C1(C)CCC2C1(C)C)C(=O)Nc1ccccc1 (stereo unspecified),–,inactive: -1.08%
COc1ccc2oc(=O)c(C(=O)n3ccc(C)n3)cc2c1,"inconclusive: 20 µM [quencher, side channel, single point]",–
Cc1cc(C)nc(N2CCC(C(=O)Nc3cccc(C(F)(F)F)c3)CC2)n1,"inconclusive: 5.01 µM [quencher, side channel, single point]",–
O=c1c(O)c(-c2cc(O)c(O)c(O)c2)oc2cc(O)cc(O)c12,"inconclusive: 25.1 µM [quencher, side channel, single point]",–
CC(=O)N1CCC(=NNc2ccc(S(=O)(=O)N3CCOCC3)cc2[N+](=O)[O-])CC1,"inconclusive: 1 µM [quencher, partial curve]",–
CCN(CC)C(=O)CSc1nnc(-c2cccc(OC)c2)o1,"inconclusive: 0.794 µM [quencher, side channel, single point]",–
COc1ccc(NC(=O)c2cc(C)cc(C)c2)cc1[N+](=O)[O-],"inconclusive: 15.8 µM [quencher, side channel, partial curve]",–
O=C(NNC(=O)c1ccccc1[N+](=O)[O-])Nc1ccc(Cl)cc1,"inconclusive: 25.1 µM [quencher, side channel, partial curve]",–
O=[N+]([O-])c1cccnc1-n1cnc2ccccc21,"inconclusive: 3.16 µM [quencher, side channel, partial curve]",–
COc1ccc(/C=C/C(=O)Nc2cccnc2Cl)cc1,"inconclusive: 22.4 µM [quencher, side channel, single point]",–
Cc1oc(/N=C/c2cccc([N+](=O)[O-])c2)c(C#N)c1C,"inconclusive: 25.1 µM [quencher, side channel, partial curve]",–
Nc1ccc(C(=O)N/N=C\C=C\c2ccc([N+](=O)[O-])cc2)cc1,"inconclusive: 3.55 µM [quencher, side channel, full curve]",–
Cc1ccc(NS(=O)(=O)c2ccc(Cl)c(C(=O)Nc3ccccc3-c3nc4ccccc4[nH]3)c2)cc1C,–,inactive: -0.499%
O=C(Nc1ccc(CN2CCOCC2)cc1)c1ccc(N2CCCC2)c([N+](=O)[O-])c1,"inconclusive: 20 µM [quencher, side channel, partial curve]",–
CCC(=O)Nc1ccc(NC(=O)c2cccc3c(Br)cccc23)cc1,"inconclusive: 39.8 µM [fluorescent, side channel, single point]",–
CCc1ccc(OCc2nnc(SCC(=O)NCc3ccco3)o2)cc1,"inconclusive: 0.141 µM [quencher, side channel, full curve, poor fit]",–
